Experiments:
[1] = target: T1, recombinant human HGF (R&D Systems, Catalog No. 294-HGN-025) (human, UniProt P14210 32-728); experiment: cell-based or functional assay
[2] = target: T1, recombinant human HGF (R&D Systems, …); experiment: cell-based or functional assay; remark: listed apart in the source

T1 sequence (P14210 32-728 limits assumed): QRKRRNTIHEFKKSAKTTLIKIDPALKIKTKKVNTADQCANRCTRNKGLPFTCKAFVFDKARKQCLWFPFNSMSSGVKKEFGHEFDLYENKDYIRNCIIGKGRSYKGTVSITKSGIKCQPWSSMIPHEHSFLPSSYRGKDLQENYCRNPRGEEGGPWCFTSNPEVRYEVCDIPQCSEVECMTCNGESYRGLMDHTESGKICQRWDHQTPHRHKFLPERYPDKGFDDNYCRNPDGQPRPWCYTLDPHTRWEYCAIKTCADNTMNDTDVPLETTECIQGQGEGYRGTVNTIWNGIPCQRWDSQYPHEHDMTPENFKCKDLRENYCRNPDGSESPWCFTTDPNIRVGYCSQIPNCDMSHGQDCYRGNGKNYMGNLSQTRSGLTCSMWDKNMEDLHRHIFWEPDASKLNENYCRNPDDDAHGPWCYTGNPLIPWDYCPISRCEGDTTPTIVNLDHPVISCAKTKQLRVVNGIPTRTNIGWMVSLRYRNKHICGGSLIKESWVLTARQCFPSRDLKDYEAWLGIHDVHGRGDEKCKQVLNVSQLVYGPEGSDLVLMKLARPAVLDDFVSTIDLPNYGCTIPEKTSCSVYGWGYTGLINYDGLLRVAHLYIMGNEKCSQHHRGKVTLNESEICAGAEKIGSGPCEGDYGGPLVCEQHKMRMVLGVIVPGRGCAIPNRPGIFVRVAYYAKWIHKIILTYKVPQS

IC50 (nM), HGF stimulated BrdU incorporation in 4MBr-5 cells [1]: 0.81 nM | HGF-stimulated c-Met phosphorylation in PC-3 cells (assay of Example 9), Average of Two Trials [2]: 0.81 nM
B1: sh2B8-12 (G1m(3)) = hu2B8 Hv5-51.1 + IgG1 constant G1m(3) allele 2 plus hu2B8 Kv3-15.1 + Kappa Km(3) allele 2 (antibody)
heavy: EVQLVQSGAEVKKPGESLKISCKGSGYSFTTYWMHWVRQMPGKGLEWMGEINPTNGHTNYNPSFQGQVTISADKSISTAYLQWSSLKASDTAMYYCARNYVGSIFDYWGQGTLVTVSSASTKGPSVFPLAPSSKSTSGGTAALGCLVKDYFPEPVTVSWNSGALTSGVHTFPAVLQSSGLYSLSSVVTVPSSSLGTQTYICNVNHKPSNTKVDKRV[human IgG1 Fc not printed]
light: EIVMTQSPATLSVSPGERATLSCKASENVVSYVSWYQQKPGQAPRLLIYGASNRNTGIPARFSGSGSGTEFTLTISSLQSEDFAVYYCGQSYNYPYTFGQGTKLEIKRTVAAPSVFIFPPSDEQLKSGTASVVCLLNNFYPREAKVQWKVDNALQSGNSQESVTEQDSKDSTYSLSSTLTLSKADYEKHKVYACEVTHQGLSSPVTKSFNRGEC
